This passage reports z-score results from PubChem BioAssay AID488969 (Vanderbilt High Throughput Screening Facility, 2010).

The full ranking holds about 110,000 compounds; the median of “z-score” is about -0.1, and the highest 2% start at about 2. The list shows a part of the results.

In this experiment the target is Metabotropic glutamate receptor 8 (Rattus norvegicus) (UniProt P70579). Put plainly: mGluR8 Gi/Go-coupled signaling modulation – cell-based, rat, thallium flux, HTS, primary screen (AID 488969). The settings on record: HEK293 rat mGluR8, GIRK (G protein-gated inwardly rectifying potassium channel) thallium flux, FluoZin2; at 10 µM; stronger effect = higher value; submaximal glutamate (EC20) added with thallium.
Sequence of UniProt P70579 (P70579 whole entry, looked up): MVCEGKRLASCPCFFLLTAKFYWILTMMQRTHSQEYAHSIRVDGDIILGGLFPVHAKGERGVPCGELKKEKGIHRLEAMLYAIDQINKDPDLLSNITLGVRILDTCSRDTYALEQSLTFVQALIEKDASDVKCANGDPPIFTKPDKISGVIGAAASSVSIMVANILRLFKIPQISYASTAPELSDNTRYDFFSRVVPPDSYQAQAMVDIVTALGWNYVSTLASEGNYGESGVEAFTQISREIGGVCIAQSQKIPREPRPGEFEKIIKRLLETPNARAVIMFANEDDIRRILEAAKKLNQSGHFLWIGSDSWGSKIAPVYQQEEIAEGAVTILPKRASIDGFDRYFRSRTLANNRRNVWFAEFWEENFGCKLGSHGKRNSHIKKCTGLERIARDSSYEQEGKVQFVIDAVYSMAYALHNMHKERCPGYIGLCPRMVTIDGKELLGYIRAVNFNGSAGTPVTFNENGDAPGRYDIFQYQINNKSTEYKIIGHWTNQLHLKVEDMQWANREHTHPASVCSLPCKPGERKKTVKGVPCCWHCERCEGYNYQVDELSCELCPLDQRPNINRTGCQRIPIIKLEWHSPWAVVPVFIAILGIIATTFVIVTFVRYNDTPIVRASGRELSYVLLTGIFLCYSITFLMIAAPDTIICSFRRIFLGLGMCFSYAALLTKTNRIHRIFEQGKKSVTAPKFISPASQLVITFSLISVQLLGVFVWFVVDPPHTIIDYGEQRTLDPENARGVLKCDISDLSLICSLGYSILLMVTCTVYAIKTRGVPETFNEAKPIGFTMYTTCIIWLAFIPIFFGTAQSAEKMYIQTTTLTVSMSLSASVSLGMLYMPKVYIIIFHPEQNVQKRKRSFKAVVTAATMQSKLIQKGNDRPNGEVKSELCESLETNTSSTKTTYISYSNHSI
With `COc1ccc(-c2cn3ccsc3n2)cc1`, the z-score turned out to be 0.107.
Molecule `Cc1ccc(S(=O)(=O)N2CCCCC2)cc1NC(=O)COC(=O)Cc1cccc2ccccc12` displayed a z-score of -0.245.
The result for `COc1cccc(C(c2nnnn2CCc2ccccc2)N2CCN(c3ccccc3)CC2)c1OC` (configuration not stated) reads -0.689.
In the case of `COC(=O)c1nnc(-c2ccccc2)nc1OC`, the z-score was -0.268.
Consider `O=C(Nc1nc(-c2ccc(F)cc2)cs1)C1CCCO1` (configuration not stated), for which the z-score was -0.336.
The value for `CCOC(=O)c1ccc(CN(Cc2ccccc2)S(=O)(=O)c2cccc([N+](=O)[O-])c2)cc1` was -0.104.
The result for `O=C(CCn1cccc1)NCc1ccccc1` reads 0.665; that for `CC(=NC1CCCC1)c1c(C)[nH]n(-c2nc3ccccc3s2)c1=O`, 0.141.
The value for `CCN1CCc2c(C#N)c(N3CCCCC3)nc(NCc3ccccc3)c2C1` was -0.129; that for `c1ccc(CC2CCN(C3=Nc4cccc5cccc3c45)CC2)cc1` was 0.122; that for `CCCCCC(C(=O)O)C(C)CC(=O)NC1CCCCC1` (configuration not stated) was -0.113.
The molecule `CC(C)(C)NC(=O)CN(Cc1cccs1)C(=O)CCC(=O)Nc1nccs1` showed a z-score of -0.171.
The value for `COc1ccc(/C=N/NC(=O)CC(=O)NCCc2ccccc2)cc1OC` was -0.114.
The value for `Cc1cccc(C(=O)N/N=C/c2ccc(OC3CSC3)cc2)c1` was 0.112; that for `N#C/C(=C\Nc1ccccc1SC(F)(F)F)c1nc(-c2ccccc2)cs1` was -0.126; that for `CCOC(=O)C(C)CC(C)C(=O)N1CCOCCN(C(=O)C(C)CC(C)C(=O)OCC)CCOCC1` (configuration not stated) was 0.0283.
The value for `CC(=O)N1CCN(C(=O)CCc2nc3ccccc3c(=O)[nH]2)CC1` was 0.872; that for `COC(=O)c1c(NC(=O)C2CCC2)sc(C(=O)N(C)C)c1C` was -1.15.
`CCOc1cc(C)nc(NCc2ccccc2)n1` displayed a z-score of -0.154.
The value for `O=C(NCc1ccco1)C1CCN(c2nc3ccccc3n2Cc2ccc(F)cc2)CC1` was 0.0125.
The value for `COCCNC(C(=O)Nc1cc(Cl)cc(Cl)c1)c1ccccc1` (configuration not stated) was -0.125; that for `N#CCN1C(=S)N=C(Nc2cccc(Cl)c2)C12CCCCC2` was 2.57.
The value for `CCc1ccc2c(CC(=O)Nc3nnc(C4CC4)s3)coc2c1` was 0.317.
In the case of `COc1ccc(C(=O)Nc2nc(C)c3cc4c(cc3n2)OCO4)cc1`, the z-score was 0.889.
The value for `Cc1ccccc1-c1nnc(SCc2ccc(F)cc2)o1` was 0.444; that for `CCOC(=O)Cc1csc(NC(=O)c2c(-c3ccccc3)noc2C)n1` was -0.523; that for `COc1ccc(Nc2ncnc3c2cnn3Cc2ccccc2)cc1` was -1.73.
The result for `Cc1cc(C)n(C(=O)CCCCCCCC(=O)n2nc(C)cc2C)n1` reads 0.167; that for `CCOC(=O)c1cnc(SCC(=O)Nc2ccc3c(c2)OCCO3)nc1N`, 0.386; that for `CCOc1ccc2nc(NC(=O)CCn3cccc3)sc2c1`, -0.175.
The value for `CCn1ncc(Br)c1C(=O)Nc1cc(C)cc(C)c1` was -0.443; that for `CCN(CCNC(=O)C1CC(=O)N(CCc2ccccc2)C1)c1ccccc1` (configuration not stated) was 0.837.
